# Laboratory results from the supplement of paper PMC8728848.
# The list shows a part of the results.
# What was measured:
# Assay in all cases: glycan array binding signal (z-score within array); higher = stronger binding
# Settings in all cases: glycan notation: IUPAC condensed, linker removed
# [1] = target: Fuc(a1-2)Gal
# Procedure, shortened: (§1)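 The Consortium for Functional Glycomics database supplied 3228 glycan arrays, of which those lacking an available protein sequence were dropped. The binding signal, a within-array Z-score, was averaged across arrays of the same protein sequence and across linkers. Negative scores can be read as non-binding.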
# [2] = target: Fuc(a1-2)Gal(b1-3)GalNAc
# Procedure, shortened: as §1
# [3] = target: Fuc(a1-2)Gal(b1-3)GalNAc(a1-3)[Fuc(a1-2)]Gal(b1-4)Glc
# Procedure, shortened: as §1
# [4] = target: Fuc(a1-2)Gal(b1-3)GalNAc(a1-3)[Fuc(a1-2)]Gal(b1-4)GlcNAc
# Procedure, shortened: as §1
# [5] = target: Fuc(a1-2)Gal(b1-3)GalNAc(b1-3)Gal
# Procedure, shortened: as §1
# [6] = target: Fuc(a1-2)Gal(b1-3)GalNAc(b1-3)Gal(a1-4)Gal(b1-4)Glc
# Procedure, shortened: as §1
# [7] = target: Fuc(a1-2)Gal(b1-3)GalNAc(b1-4)[Neu5Ac(a2-3)]Gal(b1-4)Glc
# Procedure, shortened: as §1
# [8] = target: Fuc(a1-2)Gal(b1-3)GlcNAc
# Procedure, shortened: as §1
# [9] = target: Fuc(a1-2)Gal(b1-3)GlcNAc(b1-2)Man(a1-3)[Fuc(a1-2)Gal(b1-3)GlcNAc(b1-2)Man(a1-6)]Man(b1-4)GlcNAc(b1-4)GlcNAc
# Procedure, shortened: as §1
# [10] = target: Fuc(a1-2)Gal(b1-3)GlcNAc(b1-2)Man(a1-3)[Fuc(a1-2)Gal(b1-3)GlcNAc(b1-2)Man(a1-6)]Man(b1-4)GlcNAc(b1-4)[Fuc(a1-6)]GlcNAc
# Procedure, shortened: as §1
# [11] = target: Fuc(a1-2)Gal(b1-3)GlcNAc(b1-3)Gal(b1-4)Glc
# Procedure, shortened: as §1
# [12] = target: Fuc(a1-2)Gal(b1-3)GlcNAc(b1-3)GalNAc
# Procedure, shortened: as §1
# [13] = target: Fuc(a1-2)Gal(b1-3)GlcNAc(b1-3)[Fuc(a1-3)[Gal(b1-4)]GlcNAc(b1-6)]Gal(b1-4)Glc
# Procedure, shortened: as §1
# [14] = target: Fuc(a1-2)Gal(b1-3)GlcNAc(b1-3)[Gal(b1-4)GlcNAc(b1-6)]Gal(b1-4)Glc
# Procedure, shortened: as §1
# [15] = target: Fuc(a1-2)Gal(b1-3)[Fuc(a1-4)]GlcNAc
# Procedure, shortened: as §1
# [16] = target: Fuc(a1-2)Gal(b1-3)[Fuc(a1-4)]GlcNAc(b1-2)Man(a1-3)[Fuc(a1-2)Gal(b1-3)[Fuc(a1-4)]GlcNAc(b1-2)Man(a1-6)]Man(b1-4)GlcNAc(b1-4)GlcNAc
# Procedure, shortened: as §1
# [17] = target: Fuc(a1-2)Gal(b1-3)[Fuc(a1-4)]GlcNAc(b1-3)[Fuc(a1-3)[Gal(b1-4)]GlcNAc(b1-6)]Gal(b1-4)Glc
# Procedure, shortened: as §1
# [18] = target: Fuc(a1-2)Gal(b1-3)[Fuc(a1-4)]GlcNAc(b1-3)[Gal(b1-4)GlcNAc(b1-6)]Gal(b1-4)Glc
# Procedure, shortened: as §1
# [19] = target: Fuc(a1-2)Gal(b1-4)Glc
# Procedure, shortened: as §1
# [20] = target: Fuc(a1-2)Gal(b1-4)Glc6S
# Procedure, shortened: as §1
# [21] = target: Fuc(a1-2)Gal(b1-4)GlcNAc
# Procedure, shortened: as §1
# [22] = target: Fuc(a1-2)Gal(b1-4)GlcNAc(b1-2)Man(a1-3)[Fuc(a1-2)Gal(b1-4)GlcNAc(b1-2)Man(a1-6)]Man(b1-4)GlcNAc(b1-4)GlcNAc
# Procedure, shortened: as §1
# [23] = target: Fuc(a1-2)Gal(b1-4)GlcNAc(b1-2)Man(a1-3)[Fuc(a1-2)Gal(b1-4)GlcNAc(b1-2)Man(a1-6)]Man(b1-4)GlcNAc(b1-4)[Fuc(a1-6)]GlcNAc
# Procedure, shortened: as §1
# [24] = target: Fuc(a1-2)Gal(b1-4)GlcNAc(b1-2)[Fuc(a1-2)Gal(b1-4)GlcNAc(b1-4)]Man(a1-3)[Fuc(a1-2)Gal(b1-4)GlcNAc(b1-2)Man(a1-6)]Man(b1-4)GlcNAc(b1-4)GlcNAc
# Procedure, shortened: as §1
# [25] = target: Fuc(a1-2)Gal(b1-4)GlcNAc(b1-3)Gal(b1-4)GlcNAc
# Procedure, shortened: as §1
# [26] = target: Fuc(a1-2)Gal(b1-4)GlcNAc(b1-3)Gal(b1-4)GlcNAc(b1-3)Gal(b1-4)GlcNAc
# Procedure, shortened: as §1
# [27] = target: Fuc(a1-2)Gal(b1-4)GlcNAc(b1-3)GalNAc
# Procedure, shortened: as §1
# [28] = target: Fuc(a1-2)Gal(b1-4)GlcNAc6S
# Procedure, shortened: as §1
# [29] = target: Fuc(a1-2)Gal(b1-4)[Fuc(a1-3)]GlcNAc
# Procedure, shortened: as §1
# [30] = target: Fuc(a1-2)Gal(b1-4)[Fuc(a1-3)]GlcNAc(b1-2)Man(a1-3)[Fuc(a1-2)Gal(b1-4)[Fuc(a1-3)]GlcNAc(b1-2)Man(a1-6)]Man(b1-4)GlcNAc(b1-4)GlcNAc
# Procedure, shortened: as §1
binder,measurement,setting,value
"CwpV (Clostridium difficile), B6EFG6 (protein) MKIPKKIAAMLTVTMIAGSSTAGIASAQTVATNLTGQERYETAVKISQDGWKNADEVVIVNDSSIADALSATPFAKAKNAPILLTSKDKLNDKTKAEIQRLKAKKVYLIGGTSVLSTNIEKEIKDLKISFERISGAERYQTSLELAKKLDAISDVKKIAVVNGEKGLADAVSVGAPAAQNNMPVILADSKNGTAVADKFIKDAGITQSYVVGGESSISEAVKNKLPNSTRLGGTDRNDTNAKVIKEFYKKTDLKNAYVTKDGMNKQDQLIDALAVGVLGAKNQSPVVLVGKNLSASQKSLVNSKSFDKITKVGGNGNETAFNEMKSLQEVKTVEAKTISELKSAIDKATANDVINFKPTSEVKEAFTIQTDKAVTVNLNGTYTKTVTINMPNGDVNNYAKVDDVVIDDVKDGTFVNYGKITNLKVNDKNGAKIENNSKGEIGSLTVASGASQVKVTNGGKITTVTNNSKGTTIDNKGTISSVKGDNSPTISGNSPSSNSSGGSSSSGGSSGGSSGGSSSSKVGQIKFSATDKQIKMASGDKTVDPSDNTYILKLTNGTVKDGDVKANVKVAGLPSGLDYTAVGNRSANTITITVSGTTSQSIQNDLNNVSVLVKAGAVSGTGATDSIANTTFEIKKYVAAPAVGQLTFDATDKQIKMASGDKTVDPSDDTYVLTLTKGTAKDGDIKANVEVTGLPSGLDYTAEGDSSANTITIPVSGTASPAVQTDLDNVSVLVKAGAVSETTATDSAANATFEVKKYVAPAVGQLTFDATDKQIKMASGDKTVDPSDDTYVLTLTKGTAKDGDIKANVEVTGLPSGLDYTAEGDSSANTITITVSGTASQAVQTDLDNVSVLVKAGAVSETTATDSAANATFEVKKYVAPAIGQLTFDATDKQIKMASGDKTVDPSDDTYVLTLTKGTAKDGDIKANVEVTGLPSGLDYTAEGDSSANTITITVSGTASQAVQTDLDNVSVLVKAGAVSETTATDSAANATFEVKKHASDPISTIGKISSGLSSLFNILK",glycan array binding signal (z-score),[1],-0.289
same,glycan array binding signal (z-score),[2],-0.257
same,glycan array binding signal (z-score),[3],-0.253
same,glycan array binding signal (z-score),[4],-0.306
same,glycan array binding signal (z-score),[5],0.238
same,glycan array binding signal (z-score),[6],2.48
same,glycan array binding signal (z-score),[7],-0.26
same,glycan array binding signal (z-score),[8],-0.328
same,glycan array binding signal (z-score),[9],0.672
same,glycan array binding signal (z-score),[10],0.535
same,glycan array binding signal (z-score),[11],-0.266
same,glycan array binding signal (z-score),[12],-0.285
same,glycan array binding signal (z-score),[13],-0.325
same,glycan array binding signal (z-score),[14],-0.315
same,glycan array binding signal (z-score),[15],-0.318
same,glycan array binding signal (z-score),[16],-0.178
same,glycan array binding signal (z-score),[17],-0.222
same,glycan array binding signal (z-score),[18],0.041
same,glycan array binding signal (z-score),[19],-0.302
same,glycan array binding signal (z-score),[20],-0.152
same,glycan array binding signal (z-score),[21],-0.242
same,glycan array binding signal (z-score),[22],0.321
same,glycan array binding signal (z-score),[23],-0.341
same,glycan array binding signal (z-score),[24],-0.132
same,glycan array binding signal (z-score),[25],0.358
same,glycan array binding signal (z-score),[26],0.616
same,glycan array binding signal (z-score),[27],0.354
same,glycan array binding signal (z-score),[28],-0.174
same,glycan array binding signal (z-score),[29],-0.281
same,glycan array binding signal (z-score),[30],0.828
